Sequences with one replicate were seen in a single cluster, so their values are uncertain.
Test system: ATP
Assay: switch fluorescence ratio, 500 uM ATP over buffer (Cy3 cluster intensity, sum of 5 cycles each) (fold (ratio)); higher = stronger signal-on switching upon ATP binding; sequences stand for … in TCGTCGGCAGCGTCAGATGTGTATAAGAGACAGTTTTTTTTTTTTTTTTTTTTTTTTT…TC
Conditions: aptamer strand: ATP DNA aptamer (quencher-CACCTGGGGGAGTATTGCGGAGGAAGG + anchor), 100 nM annealed; ATP concentration: 500 uM; one replicate
Summary of the method: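 The fluorescence ratio divides summed target-cycle Cy3 intensity by summed buffer-cycle Cy3 intensity for each cluster and is averaged per switch-domain sequence. Cy3-labelled switching-strand clusters on a modified Illumina MiSeq flow-cell were annealed to 100 nM quencher-labelled ATP aptamer, then imaged in selection buffer and again after 15 min with 500 uM ATP at 22 °C. Five such cycles were run, with NaOH stripping and re-annealing between them, and clusters outside 100-1000 RFU were excluded.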
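Further: ATP exposure 15 min at 22 °C before imaging.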

Sequence	switch fluorescence ratio
TGGACCCTTC	1.05
TGGACCTGGG	1.1
TGGACTAAAT	1.01
TGGACTATAA	1.03
TGGACTCGTG	0.97
TGGACTGTA	1.3
TGGAGAACCG	0.928
TGGAGAAGTT	1.23
TGGAGACCTT	1.21
TGGAGACGCT	1.01
TGGAGATAG	1.25
TGGAGCACA	2.15
TGGAGCACAG	1.3
TGGAGCACTA	1.61
TGGAGCGGCG	1.02
TGGAGGAAGC	1.04
TGGAGGAGA	1.08
TGGAGGAGTG	0.997
TGGAGTCGGG	1
TGGAGTGTCT	0.971
TGGAGTTGCC	0.972
TGGATAGACG	0.897
TGGATAGCGT	0.972
TGGATATAG	0.963
TGGATCACAC	1.01

Sequence	switch fluorescence ratio
TGGATCCGTT	0.974
TGGATCGGCT	0.983
TGGATGAA	0.968
TGGATTTATG	0.987
TGGCAACGTG	0.971
TGGCACAATG	0.992
TGGCACCGTT	0.956
TGGCACGGCA	1
TGGCAGAAAA	1.03
TGGCAGCGCT	0.99
TGGCAGTCGC	1.02
TGGCATGGCG	0.958
TGGCCAAGGT	1.01
TGGCCAGAGG	0.998
TGGCCATAAT	1.02
TGGCCCAAAC	1.01
TGGCCGATTC	1.07
TGGCCGTCGG	1.01
TGGCCTACTG	0.963
TGGCCTGAG	1.08
TGGCGACTGG	0.999
TGGCGCACTC	1.41
TGGCGCACTT	1.05
TGGCGCATAT	1.39
TGGCGGACGC	0.979

Sequence	switch fluorescence ratio
TGGCGGCACG	0.998
TGGCGTCTTT	1.11
TGGCGTTATC	0.968
TGGCTGATGT	0.979
TGGCTGGTG	1.1
TGGCTTAATC	1.01
TGGCTTAATT	1.03
TGGCTTCGTA	0.981
TGGCTTGGGC	0.952
TGGCTTGTTG	1.01
TGGCTTTCAG	0.987
TGGGAACGGC	1.13
TGGGAAGATG	0.97
TGGGAAGCCC	0.993
TGGGAATGAG	1.01
TGGGACGCGA	1.56
TGGGAGAGAC	1.02
TGGGAGCGGA	1.04
TGGGAGCTGT	0.987
TGGGAGTCAT	1.43
TGGGCAGGG	1.03
TGGGCATACT	1.31
TGGGCCAGT	1.01
TGGGCGACGC	1.09
TGGGCGATT	1.01

Sequence	switch fluorescence ratio
TGGGCGTGTA	1.01
TGGGCGTTCG	1.03
TGGGCTATC	1.5
TGGGCTTGCA	0.981
TGGGGACCAA	0.996
TGGGGAGTTT	1.03
TGGGGCCGGT	0.94
TGGGGCGAGA	1.06
TGGGGCGGCT	1.03
TGGGGGAC	0.967
TGGGGTACTG	1.03
TGGGGTTCCT	1.03
TGGGTACCAA	1.03
TGGGTAGTT	1.02
TGGGTCCGGA	1.06
TGGGTCCTGG	0.95
TGGGTCGAGT	1
TGGGTCGCTG	1.02
TGGGTTATCC	1
TGGGTTGACT	0.936
TGGGTTGAGC	0.961
TGGGTTGCT	0.974
TGGGTTGGAA	1.05
TGGTAAAGA	1.01
TGGTAAATTT	0.979
